Source: patent US12458818B2, “Anti-trophoblast cell surface antigen 2 (TROP2) antibodies and antibody drug conjugates comprising same” (CSPC MEGALITH BIOPHARMACEUTICAL CO., LTD., priority 2019, dated 2025)

Legend:
human TROP2 [1] = target: T1, human TROP2 (Homo sapiens, UniProt P09758); assay: Surface plasmon resonance kinetics and affinities (Table 8B); assay type: binding; settings: SPR, analyte TROP2
T1 sequence (P09758 27-323): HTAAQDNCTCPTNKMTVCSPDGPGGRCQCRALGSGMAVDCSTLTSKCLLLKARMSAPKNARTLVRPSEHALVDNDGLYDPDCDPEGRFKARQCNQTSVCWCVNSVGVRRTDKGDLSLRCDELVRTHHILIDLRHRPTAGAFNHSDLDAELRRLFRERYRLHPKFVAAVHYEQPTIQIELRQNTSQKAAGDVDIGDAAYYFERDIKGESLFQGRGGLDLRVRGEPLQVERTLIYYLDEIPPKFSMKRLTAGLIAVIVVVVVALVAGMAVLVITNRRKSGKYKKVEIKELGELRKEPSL
Description: Surface plasmon resonance (SPR) experiments were performed to determine the kinetics and affinities of certain antibodies shown in Table 8A.

human TROP2 [2] = target: T1, human TROP2; assay: SPR affinity ranking of humanized antibodies (Table 8C); assay type: binding
MDA-MB-468 = assay: In vitro cytotoxicity assay, MDA-MB-468; assay type: cell-based; settings: MDA-MB-468 TROP2+ human breast adenocarcinoma cell line
Description: (§1) Additional in vitro cytotoxicity assays were performed to test the ability of DP002-HC1LC1-ADC to inhibit the growth of MDA-MB-468 (a TROP2^+ human breast adenocarcinoma cell line) and HCC38 (a TROP2^+ human mammary ductal carcinoma cell line).

HCC38 = assay: In vitro cytotoxicity assay, HCC38; assay type: cell-based; settings: HCC38 TROP2+ human mammary ductal carcinoma cell line
Description: as §1

B1: HC1/LC1 (antibody)
heavy: QVQLVQSGAEVKKPGASVKVSCKASGYTFTDYSINWVRQAPGQGLEWMGVISTYYGDASYNQKFKGRVTMTTDTSTSTAYMELRSLRSDDTAVYYCARYGDGYNQFDYWGQGTMVTVSS[human IgG1 constant region cut from this listing]
light: DIVMTQSPDSLAVSLGERATINCRVSESVDSYGNNFMHWYQQKPGQPPKLLIYRASNLESGVPDRFSGSGSGTDFTLTISSLQAEDVAVYYCQQSYEDPYTFGQGTKLEIKRTVAAPSVFIFPPSDEQLKSGTASVVCLLNNFYPREAKVQWKVDNALQSGNSQESVTEQDSKDSTYSLSSTLTLSKADYEKHKVYACEVTHQGLSSPVTKSFNRGEC
With B1 the Rmax (human TROP2 [1]) was 52.4, the “ka” value (human TROP2 [1]) was 1.97e+06 M⁻¹ s⁻¹ and the “kd” value (human TROP2 [1]) was 0.00013 s⁻¹. For the same molecule, the “Ka” value (human TROP2 [2]) was 1.63e+06 M⁻¹ s⁻¹, the “Kd (1/s)” value (human TROP2 [2]) was 0.000105 s⁻¹ and the “Rmax (RU)” value (human TROP2 [2]) was 48.4 RU. It also gave a Max % inhibition (MDA-MB-468) of 14.57% and a Max % inhibition (HCC38) of 10.87%.
